According to PubChem BioAssay AID485360 (National Center for Advancing Translational Sciences (NCATS), 2010):
About 1,500 (0.65%) of roughly 230,000 compounds were called active. Inconclusive means that the source gave no clear call. Such entries were picked first, then a sample of the others. The call rests on the fitted dose curve; in most records, active means well fitted inhibition curve with a large enough effect; inconclusive means small, poorly fitted or top-dose-only effect; inactive means no such curve, though single readings can be large or run the other way. A potency beside an inconclusive call is a rough fit, not a confirmed value.

Biological target: Lethal(3)malignant brain tumor-like protein 1 (Homo sapiens) (UniProt Q9Y468)
Sequence of UniProt Q9Y468 (Q9Y468 whole entry, looked up): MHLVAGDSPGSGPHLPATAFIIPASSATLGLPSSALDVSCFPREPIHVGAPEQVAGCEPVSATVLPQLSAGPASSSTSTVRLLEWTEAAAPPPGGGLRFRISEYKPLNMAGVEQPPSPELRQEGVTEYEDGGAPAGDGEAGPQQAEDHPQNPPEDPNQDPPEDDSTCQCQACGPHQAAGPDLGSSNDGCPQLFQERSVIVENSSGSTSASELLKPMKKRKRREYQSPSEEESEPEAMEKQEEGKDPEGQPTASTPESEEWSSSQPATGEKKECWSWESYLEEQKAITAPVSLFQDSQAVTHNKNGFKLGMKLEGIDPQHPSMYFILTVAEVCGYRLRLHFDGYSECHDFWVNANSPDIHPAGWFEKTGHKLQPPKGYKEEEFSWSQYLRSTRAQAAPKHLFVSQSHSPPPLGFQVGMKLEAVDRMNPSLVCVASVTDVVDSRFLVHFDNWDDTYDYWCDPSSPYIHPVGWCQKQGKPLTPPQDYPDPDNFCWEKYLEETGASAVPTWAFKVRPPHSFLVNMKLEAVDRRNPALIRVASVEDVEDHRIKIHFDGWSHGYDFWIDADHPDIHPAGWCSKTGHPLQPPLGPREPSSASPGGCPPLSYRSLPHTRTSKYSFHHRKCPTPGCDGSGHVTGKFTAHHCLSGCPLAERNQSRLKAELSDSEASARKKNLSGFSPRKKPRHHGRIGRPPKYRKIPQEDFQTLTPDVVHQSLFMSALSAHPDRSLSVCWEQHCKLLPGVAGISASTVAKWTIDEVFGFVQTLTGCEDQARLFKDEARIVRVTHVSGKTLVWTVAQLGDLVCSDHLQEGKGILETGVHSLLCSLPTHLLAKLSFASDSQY
Test: qHTS Assay for the Inhibitors of L3MBTL1; further: nearly all actives have a fitted effect of over 60% in size
Details: AlphaScreen L3MBTL1–H3K9me1 peptide binding; series mostly up to 57.1 µM
Excerpt: The histone code is comprised of many post-translational modifications that occur mainly in histone tail peptides. The identity and location of these marks are read by a variety of histone binding proteins that are emerging as important regulators of cellular differentiation and development and are increasingly being implicated in numerous disease states. Small molecule probes that disrupt the interaction between histone binding proteins and chromatin would enable a systematic chemical biology study of proteins that read the histone code and could potentially reveal new targets for drug discovery. However, no such small molecules are known. This dearth of quality molecular probes can largely be attributed to the novelty of the target class and the lack of screening assays. This proposal details the development of the first high-throughput screening assay for the discovery of inhibitors of methyl-lysine binding proteins and how it can be be used to initiate a full-scale discovery effort for antagonists of histone binding proteins. Specifically, this work focuses on an AlphaScreen(tm)-based HTS assay for Malignant Brain Tumor (MBT) domain-containing proteins, which bind to the lower methylation states of lysine residues present in histone tail peptides.
To each well, 2 uL of L3MBTL1 protein (final 50 nM) and 1 uL biotinylated histone peptide monomethylated at Lys9 [b-AHA-H3(1-15)K9me1] (final 75 nM) was added using a nanoliter dispenser. Formation of a protein-peptide complex proceeded at room temperature for 30 min. A Kalypsys pin-tool was employed to transfer 23 nL of library compound solution in DMSO to each well. Cefsulodin, found in a pilot screen of the LOPAC library to be a weak inhibitor of L3MBTL1 binding, was used as an intraplate control with a 16-point titration in duplicate. Following a 30 min incubation of the protein-peptide complex with compounds at room temperature, a mixture of 40 ug/mL each streptavidin-coated donor and nickel chelate acceptor AlphaScreen beads (final 10 ug/mL) was added in a 1 uL dispense for a final volume of 4 uL. Plates were incubated, protected from the light for 30 min at room temperature. Microplates were then be read on an EnVision multilabel plate reader using the 1,536 plate HTS AlphaScreen aperture (excitation time 80 ms, measurement time 240 ms).
Potency means the concentration at half of the fitted maximal effect; tags describe the fitted curve by direction and shape.

Compound	Potency
CC(C)(C)NC(=O)C(c1ccncc1)N(C(=O)c1csnn1)c1ccccc1 (stereo not given)	inconclusive: 6.31 µM [inhibitor, single point]
O=C(O)c1cccnc1C(=O)O	inconclusive: 22.4 µM [inhibitor, single point]
Cc1cc(NC(=O)COc2cccc3cccnc23)no1	inconclusive: 31.6 µM [inhibitor, single point]
Cc1ccc(Nc2cc(C)c(O)c(C)c2)cc1	inconclusive: 39.8 µM [inhibitor, single point]
Cc1nn(-c2ccc(F)cc2)c(Cl)c1/C=N/NC(=O)c1ccc(O)cc1	inactive
O=C(NCc1ccc2c(c1)OCO2)c1cc2ccccc2oc1=O	inconclusive: 4.47 µM [inhibitor, full curve]
COc1ccc(C(=O)Nc2nc3nc(-c4ccccc4)cc(=O)n3[nH]2)cc1	inconclusive: 39.8 µM [inhibitor, single point]
COC(=O)Nc1sc2c(c1C(=O)NCc1ccco1)CCC2	inconclusive: 39.8 µM [inhibitor, single point]
O=c1cc(C(F)(F)F)nc(-n2[nH]c3c(c2=O)CCCC3)[nH]1	active: 8.91 µM
O=C(CNS(=O)(=O)c1ccccc1)OCC(=O)c1ccc([N+](=O)[O-])cc1	inactive
O=C(Nc1cccc(C(F)(F)F)c1)/C(=C\c1ccco1)NC(=O)c1cccs1	inactive
Cc1nc(SCC(=O)N2CCN(C(=O)c3cccs3)CC2)c2c(C)c(C)sc2n1	inconclusive: 0.794 µM [inhibitor, single point]
COc1ccc(CCNC(=O)c2cc3sc(Cl)cc3n2C)cc1OC	inconclusive: 28.2 µM [inhibitor, partial curve]
CCOCCCNC(=O)Cn1cnc2c(cnn2-c2ccc(OC)cc2)c1=O	inactive
CCOC(=O)c1ccc(NC(=O)Cn2c(-c3nonc3N)nc3ccccc32)cc1	inactive
CC1(C)Cc2ccccc2C(/C(=N\Nc2cccc(Cl)c2)C(N)=O)=N1	inconclusive: 39.8 µM [inhibitor, single point]
Cc1ccc(NC(=O)CN(C)CC(=O)Nc2ccc(F)c(Cl)c2)cc1	inconclusive: 0.794 µM [inhibitor, full curve, poor fit]
COc1cc(/C=C2\SC(=S)N(Nc3ccccc3)C2=O)ccc1O	inconclusive: 39.8 µM [inhibitor, single point]
COc1ccc(-c2nc(C#N)c(N3CCCCCC3)o2)cc1	inconclusive: 20 µM [inhibitor, partial curve]
CCOc1ccccc1N1CC(C(=O)Nc2c(C)n(C)n(-c3ccccc3)c2=O)CC1=O (stereo not given)	inconclusive: 39.8 µM [inhibitor, single point]
CCOc1cc(N2CCOCC2)c(OCC)cc1NC(=O)COC(=O)c1ccc([N+](=O)[O-])o1	inconclusive: 28.2 µM [inhibitor, single point]
CCCCC(CC(O)COCC(C)C)C(=O)NN (stereo not given)	inconclusive: 8.91 µM [inhibitor, partial curve, poor fit]
COc1ccc(Nc2nc(NCC3CCCO3)c3ccccc3n2)c(OC)c1 (stereo not given)	inconclusive: 25.1 µM [inhibitor, single point]

Compound	Potency
COc1ccc(OC)c(NC(=O)Cn2c(=O)n(CC3CCCO3)c(=O)c3cc(OC)c(OC)cc32)c1 (stereo not given)	inactive
C/C(=N/NC(=O)CN(c1ccccc1)S(=O)(=O)c1ccccc1)c1ccccc1O	inconclusive: 35.5 µM [inhibitor, single point]
O=C(CSc1nnc(Cc2cccs2)n1Cc1ccco1)Nc1ccc(Br)cc1	inactive
Cc1ccc(CN2CCN(/N=C\c3cccc([N+](=O)[O-])c3)CC2)cc1	inconclusive: 20 µM [inhibitor, partial curve]
CCN(CC)c1ccc(/C=N/NS(=O)(=O)c2ccc(CNC(C)=O)cc2)cc1	inconclusive: 25.1 µM [inhibitor, single point]
COc1ccccc1NS(=O)(=O)c1cc(NC(=O)CC(C)(C)C)ccc1N1CCOCC1	inconclusive: 2 µM [inhibitor, full curve, poor fit]
Cc1ccc(N2CCN(c3ccc(NC(=O)CCC(=O)O)cc3)CC2)cc1	inactive
Cc1ccc(OCc2ccoc2C(=O)O)cc1C	inconclusive: 35.5 µM [inhibitor, single point]
CCc1noc(C)c1C(=O)OCC(=O)Nc1ccc2c(c1)OCO2	inactive
Cc1c(C(=O)Nc2ccc(S(=O)(=O)N(C)C3CCN(C)CC3)cc2)oc2c(Cl)cccc12	inconclusive: 22.4 µM [inhibitor, partial curve]
CCn1c(SCC(=O)Nc2ccccc2C(=O)OC)nc2c1c(=O)n(C)c(=O)n2C	inactive
Cc1ccc2c(C)c(C(=O)N(Cc3ccc(N(C)C)cc3)C3CCS(=O)(=O)C3)oc2c1 (stereo not given)	inconclusive: 31.6 µM [inhibitor, partial curve]
COc1cc(C)ccc1OCCCOc1ccccc1Br	inactive
CNc1nc(OC)nc(N(C#N)CN2C(=O)c3ccccc3S2(=O)=O)n1	inconclusive: 0.282 µM [inhibitor, full curve]
COc1ccc(N2CCN(CC(=O)Nc3c(C)cc(C)cc3C)CC2)cc1	inactive
Cc1ccc(C(=O)n2nnc3ccccc32)cc1[N+](=O)[O-]	inactive
Nn1cnnc1SCC(=O)Nc1ccc(C2CCCCC2)cc1	inconclusive: 10 µM [inhibitor, partial curve, poor fit]
O=C(NS(=O)(=O)c1ccc(NC(=O)C2CCCO2)cc1)c1ccccc1 (stereo not given)	inconclusive: 6.31 µM [inhibitor, single point]
CCc1ccc(OCC(=O)NC2CC(C)(C)NC(C)(C)C2)cc1	inactive
COc1ccc(Cc2nnc(N/N=C/c3ccc(O)cc3)[nH]c2=O)cc1OC	active: 17.8 µM
N#Cc1ccccc1NC(=O)C1CC(=O)N(c2ccc3c4c(cccc24)CC3)C1 (stereo not given)	inconclusive: 7.08 µM [inhibitor, single point]
CSc1ccc(/C=N/Nc2cccc(C(=O)O)c2)cc1	active: 5.01 µM
